Inconclusive results, whose numbers are uncertain, are shown with a selection of clear calls. No potency is given beside an inconclusive call; the fits are too rough. The source made the active and inactive calls. Calls follow the shape of the dose curve; as a rule, active = well fitted inhibition curve with a large enough effect; inconclusive = small, poorly fitted or top-dose-only effect; inactive = flat fitted curve, though single readings scatter.
Biological target: Fructose-bisphosphate aldolase A (Oryctolagus cuniculus) (UniProt P00883)
Experiment: qHTS Assay for Inhibitors of Fructose-1,6-bisphosphate Aldolase from Giardia Lamblia: Rabbit FBPA Selectivity (AID 2794); also: nearly all actives have a fitted effect of over 60% in size
Details: Rabbit muscle FBPA enzyme inhibition, selectivity counter-screen; series mostly up to 57.5 µM
Method in brief: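 Rabbit Class I FBPA selectivity counterscreen, 1536-well qHTS: compounds at up to 57.5 uM final preincubated 10 min RT with coupling enzyme reagent, then substrate plus coupled enzymes and AmpLite Red added; 20 min RT, fluorescence read at 525/598 nm.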
Potency is read from the fitted curve at half-maximal effect; tags tell the direction and shape of the fitted curve.

Chain of UniProt P00883 (P00883 whole entry, looked up): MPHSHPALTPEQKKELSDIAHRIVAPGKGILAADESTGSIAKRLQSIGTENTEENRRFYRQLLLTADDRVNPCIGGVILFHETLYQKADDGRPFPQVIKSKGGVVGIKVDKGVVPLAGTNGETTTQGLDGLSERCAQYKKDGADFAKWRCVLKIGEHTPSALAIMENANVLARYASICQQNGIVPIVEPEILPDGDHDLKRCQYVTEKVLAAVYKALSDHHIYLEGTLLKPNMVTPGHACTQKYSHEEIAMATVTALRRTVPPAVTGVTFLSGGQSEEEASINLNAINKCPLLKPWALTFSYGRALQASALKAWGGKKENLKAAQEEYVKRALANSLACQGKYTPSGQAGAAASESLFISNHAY

SMILES	Potency
COc1ccc(CN2CCN(CCCc3ccccc3)CC2)c(OC)c1	inactive
O=C(Nc1sc2c(c1C(=O)O)CCC2)c1ccc(F)cc1	inconclusive [inhibitor, partial curve]
CN1CCN(C(=S)c2ccc(Br)cc2)CC1	inconclusive [inhibitor, single point]

System: not listed separately
Experiment: qHTS Assay for Inhibitors of Fructose-1,6-bisphosphate Aldolase from Giardia Lamblia: Coupling assay counterscreen confirmation (AID 2795); also: nearly all actives have a fitted effect of over 55% in size
Details: GAPDH coupling enzyme counterscreen, biochemical; series mostly up to 57.5 µM
Method in brief: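 Compounds at up to 57.5 uM final tested against the coupling enzymes and resorufin-type fluorescent detection only, aldolase omitted. Ex 525 nm/em 598 nm read after 10 min enzyme-compound and 20 min substrate incubations, room temperature.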

SMILES	Potency
Cc1cc(C)n2c(=S)[nH]nc2n1	inactive
c1ccc2[nH]c(SN3CCOCC3)nc2c1	inconclusive [inhibitor, single point]
CCN(CCNCC(O)COc1ccccc1C(C)C)c1cccc(C)c1 (centres undefined)	inactive
CSC1=NS(=O)(=O)c2c(C)nn(C)c2S1	inconclusive [inhibitor, single point]
C[C@H](NC(=O)[C@H]1N2C(=O)c3ccccc3C2SC1(C)C)C(=O)N1CCCCC1 (some centres undefined)	inconclusive [inhibitor, partial curve]
CSc1ccc(/C=N\Nc2nncn2N)cc1	active: 3.26 µM
CC(C)n1cnc2c(=S)nc[nH]c21	inconclusive [inhibitor, partial curve, poor fit]
Oc1ccc(/C=N/N=C(c2ccccc2)c2ccccc2)c(O)c1O	inconclusive [inhibitor, single point]
C/C(=N/O)c1ccccn1	inconclusive [inhibitor, partial curve, poor fit]
CCN(CC(=O)Nc1ccccc1OC)CC(=O)Nc1ccccc1-c1ccccc1	inactive
CCN1CCc2c(C#N)c(NCc3ccccc3)nc(NCCO)c2C1	inactive
COc1ccc(CNC2CCSc3ccccc32)cc1OC (centres undefined)	inactive
CCCCn1cnc2c(=S)nc(N)[nH]c21	inactive
CCSS(=O)(=O)c1cccc2cccnc12	inconclusive [inhibitor, single point]
Nn1cnnc1N/N=C/c1cccc(Cl)c1Cl	active: 14.6 µM
Cc1cccc(C)c1OCCN1CCOCC1	inactive

SMILES	Potency
NS(=O)(=O)c1ccc(NC(=S)NC(=O)c2ccc(Br)o2)cc1	inactive
Cc1ccc(-n2c(=S)[nH]c3[nH]ncc3c2=O)cc1	inactive
CN(C)c1ccc(C(=S)N2CCN(Cc3ccccc3)CC2)cc1	inconclusive [inhibitor, single point]
OCC1CCCC(n2cnc3c(=S)nc[nH]c32)O1 (centres undefined)	inconclusive [inhibitor, full curve, poor fit]
Brc1cccc(OCCCCn2cncn2)c1	inactive
O=c1ccc2cc3c([nH]c4ccc(Br)cc43)oc-2c1O	active: 10 µM
N#C/C(=C(\O)c1cc(Cl)sc1Cl)c1nc2ccccc2[nH]1	inconclusive [inhibitor, partial curve, poor fit]
NC(=O)CN(C/C=C/c1ccccc1)C/C=C/c1ccccc1	inactive
O=C(Nc1sc2c(c1C(=O)O)CCC2)c1ccc(F)cc1	inconclusive [inhibitor, partial curve]
O=C(Nc1nnc(-c2ccncc2)o1)c1cccc(N2C(=O)CCC2=O)c1	inactive
N#Cc1c(N)sc(=S)c2c1CCN(Cc1ccccc1)C2	active: 31.6 µM
CCN1CCN(C(=S)c2ccc(O)cc2)CC1	inactive
COc1ccc(CNc2ncc(-c3ccccc3)n2C)cc1	inactive
CC(C)(C)c1cc(C(=S)N2CCN(CCO)CC2)cc(C(C)(C)C)c1O	inconclusive [inhibitor, single point]
CN1CCN(C(=S)c2ccc(Br)cc2)CC1	inconclusive [inhibitor, single point]
